# Test results from the RNAGym collection of RNA variant scans (doi:10.7554/elife.90254).
# The source gives no read counts; variants with many changes may rest on few reads.
# B1: LINE1-mini (parent)
# chain: GGCAGAGCUCAACACAGCGUGGCAAAGUGGCUGUGGCUAGACUGCC
# Variants of: B1
# Test: self-cleavage, relative activity (ratio to wild type); higher = more cleavage; in vitro, sequencing; the parent is a self-cleaving ribozyme
row,Variant,self-cleavage
1,GGCAGAGCUCAACACAGCGUGGCAAUGUAGCUAUGGCGAGACUGCU [A26U G29A G33A U38G C46U],0.01
2,GGCAGAGCUCAACACAGAGUGGCAAGGUGGCUGUGGCUAUACUGCC [C18A A26G G40U],0.06
3,GACAGAGCUCAACACAGCGUGGAAAAGUGGCUGUGGAUAGAAUGCC [G2A C23A C37A C42A],0.13
4,GUCAUAGCUCAACAAAGUGUGACAAAGGGGCUGUGGCUAGACUGCC [G2U G5U C15A C18U G22A U28G],0.01
5,GGCAGAGCUCACCACAGCGUGGCAAACUGGCUGUGGCGAGCCUGCC [A12C G27C U38G A41C],0
6,GGCAGAGCUCAACACCACGUGGCAAAGUUGCUGUGGCUACACUGCU [A16C G17A G29U G40C C46U],0.01
7,GGCAGACCUCAACAUAGCGUGGCAAAUUGGCUGUGGCUAGACUGCC [G7C C15U G27U],0.05
8,GGCAGAGCUCAACGCAGCGUGGCAAAGCGGCUGUGGCUUGACUGCC [A14G U28C A39U],0.02
9,GGCAGAGUUGAACACAGCGUGACAAAGUGGCUGUGGCAUGACUUCC [C8U C10G G22A U38A A39U G44U],0.01
10,CGCAGAGCUCAACACAGCGCGGCAAAGUGGUUGUGGCUUGACUGCU [G1C U20C C31U A39U C46U],0.02
11,GGCAGAGCCCAACACAGCGUGUCAAAUUGGCUGUGGCUAGACUCCC [U9C G22U G27U G44C],0.13
12,GUCAUAACUCAAAACAGCGUGGCAAAUUCGAUGUGGCUAGACUGCC [G2U G5U G7A C13A G27U G29C C31A],0.11
13,GCCAGAGCUCAACACAGCGUUGCAAAGGGGCUGUGGCUAUACUGCC [G2C G21U U28G G40U],0.03
14,GGCAGAGCUCAACAGAGCGUGCCAAAGUGGCUGUGGCUUGACUGCC [C15G G22C A39U],0.01
15,UGCAUAGCCCAACGCAGCGUGGCAAAGUGGCUGUGGCUAGACUGCC [G1U G5U U9C A14G],0.01
16,UGCAGAUCUCAACACAGCGUGGCCAAGUGGCUGUGGCUAGACUGCC [G1U G7U A24C],0.03
17,GACAGAGCUUAACCCAGCGUGGUAAAGUGGCUGUUGCUAGACUGCC [G2A C10U A14C C23U G35U],0.02
18,GGCAGAGCUCAACACAGCGAUGCAAAGUGGCUGUGGUUAGAUCGCC [U20A G21U C37U C42U U43C],0.01
19,GUCAGAGCUCAACACAGCGUGGCGAAGAGGCUGUGGUUAGACUGCC [G2U A24G U28A C37U],0.05

row,Variant,self-cleavage
1,GGCAGAGCUCAAUACAGCGUGGCAAAGUGGCUGUGGCUAGCAUGCC [C13U A41C C42A],0.06
2,GGCAGAGCGCAACACAGCGGGGCAAAGUGGCUGUGGCUAGAUUGCC [U9G U20G C42U],0.01
3,GGCGGAGCUCAAUACAGCGUGGCAAAGUGGCUUUGGCUAGACUGCC [A4G C13U G33U],0.05
4,GGCAGAGCUCAACACAGCGUGACAAAAUAAAUGUGGCUAGACUCCU [G22A G27A G29A G30A C31A G44C C46U],0.03
5,GGCAGAGCUCAACACAGCGUGGCAAAGUGGCUGUGGCUACACUAUC [G40C G44A C45U],0.02
6,AGCAGAGCUCAACACAGCGUGGCACAGUGGCUGGGGCUAGACUGCC [G1A A25C U34G],0.11
7,GGCAGAGCUCAACACAGCGUGGCAAAUUGGCUGUUGUUAGACUGCC [G27U G35U C37U],0
8,GGCAGGGCUCAACACCGCGUGUCAAAGUGGCUGUGGCUAGACUGCC [A6G A16C G22U],0.09
9,GGCUGAACUCAACACAGCGUGGCAAAGUGGCUGUGGCUUGACUGCC [A4U G7A A39U],0.1
10,GGCAGAGCUCAUCACUGCGGGGCAAAGUGGCCGUGACUAGACUGCC [A12U A16U U20G U32C G36A],0.01
11,GGCAGAGCUAAUAACACCGUGGCAAAGUGGCUCUGGCUAGACUGCC [C10A A12U C13A G17C G33C],0
12,GGCUUAGCUCAACAAAUCGUGGCAAAGUGGCUGUGGCUAGACUUCC [A4U G5U C15A G17U G44U],0.03
13,GGCAGCGCCCAACACAGCUUGGCAAAGUGGCUAUGGCUAGACUGCC [A6C U9C G19U G33A],0.03
14,GGCUGAGCUCAACACAGCGAGGCAAAGUGGCUGUGGCUGGACUGCC [A4U U20A A39G],0.05
15,GGCAGAGCGCAACACAGCGUGGCCUAGUGGCUAUGGCUAGACUGCC [U9G A24C A25U G33A],0.06
16,GGAAGAGCUCAACACAUUGUCGCAAAGUGGCUGUGGCUAGACUGCC [C3A G17U C18U G21C],0.2
17,GGCAGAGCUCAACACAGCGUAGCAAUGUGGCUGUGGCUAGUCUGCC [G21A A26U A41U],1.24
18,GGCAGAGCUCAACACAUCGUGGUAAAGUGGCUGUGUCUAGACUGCC [G17U C23U G36U],0.08
19,GGCAGAUCUCAACACAGCGUGGCAAACUGGUUGUGGCUAGACCGCC [G7U G27C C31U U43C],0.06

row,Variant,self-cleavage
1,GGCCGAGCUCAACACAGCGUGGCAAAGUGGCUGUGUCUGGACUCCC [A4C G36U A39G G44C],0.12
2,GGCAGAGCUCAACACAGCGUGCCAAAGUGGCUGUGCAUAGGCUGCC [G22C G36C C37A A41G],0.03
3,GGCAGAGCUCAACACAGCGUGACAAAGAGGCUGUAGCUAGACUGCC [G22A U28A G35A],0.13
4,GGCAGAGCUUAAAACAGCGAGGCAAAGUGGCUGUGGCUGGACUGCC [C10U C13A U20A A39G],0
5,GGCAUAGCUCAAAACAGCGUGGCAAAGUGGCUGUAGCUAGAAUGCC [G5U C13A G35A C42A],0.08
6,GGCCGAGCUCAACUCAGCGAGGCAAAGUGUCUGUGGCUAGUCUGCC [A4C A14U U20A G30U A41U],0.01
7,GGCAGAGCUCAACACAGCGUGGCAAAGUCGCUGGGGCUAUAGUGCC [G29C U34G G40U C42G],0.01
8,GGCACAGCUCAACACAGCGUUGCAAAGUGGCUGUGCCUAGACCGCC [G5C G21U G36C U43C],0
9,GGCAGACCUCAACACAGCGUGGCAAAGUGGGUGAGGCUAGACUGCC [G7C C31G U34A],0.02
10,GGCAGACCUCAAAACAGCGUGUCAAAGUGUCUAUGGCUAGACGGCC [G7C C13A G22U G30U G33A U43G],0.01
11,GGCAGAGCUCAAGACAGCGUGGCAAAGGGGCGGUGGCUAGACUGCC [C13G U28G U32G],0.01
12,GGCAGAGCUCAACACCGCGUGGCAAGGUGGCUGUGGAUGGACUGCC [A16C A26G C37A A39G],0.04
13,GGCAGAGCUCAACACAGCGUGGCAAACUGGCUCUCGCUAGACUGCC [G27C G33C G35C],0.04
14,GGCGGAGCUUAACACAGCCUGGCAAGGUGGCUGUGGCUAGACUGAC [A4G C10U G19C A26G C45A],0.03
15,GGCAGAGCUCAACACAGCGUCCCAAAGUGGCUGUGGAUUGACUGCC [G21C G22C C37A A39U],0.03
16,GGCAGAGCUCAACACAGCGUGGCGAAGUGGCUGUGGUUAGACUCCC [A24G C37U G44C],0.13
17,GGCAGAGCUCAACACAGCGAGGCAACGUGGCUGUUGCUAGACUGCC [U20A A26C G35U],0.05
18,UACAGAGCGCAACACAGCGUGGCAAAGUGGCUAUGGCUAGUCUGCC [G1U G2A U9G G33A A41U],0.21
